From a compilation of properties of binary mixtures (doi:10.1016/j.molliq.2012.10.030)
The densities may have been worked out from excess volumes.

Assay: xn = mol fraction of the nth substance listed
Details: 101 kPa

Nc1ccccc1 + CC[n+]1ccn(C)c1.F[B-](F)(F)F
mass density [kg/m3]
Details | 293.15 K | 298.15 K | 303.15 K | 308.15 K
x1 = 0.0697 | – | 1272.5 | 1269.2 | –
x1 = 0.0803 | 1274.4 | 1271.3 | – | 1264.6
x1 = 0.1286 | 1268.6 | 1265.8 | 1262.6 | 1259.3
x1 = 0.1717 | – | 1260.5 | – | 1254.1
x1 = 0.2251 | 1256.4 | 1253.5 | 1250.3 | 1247
x1 = 0.2724 | 1249.9 | – | 1243.4 | 1240.1
x1 = 0.3253 | 1241.9 | – | 1235 | 1231.6
x1 = 0.3805 | 1232.7 | – | 1225.4 | 1221.9
x1 = 0.4288 | 1223.7 | 1219.7 | 1216.2 | 1212.5
x1 = 0.4681 | 1215.7 | 1211.6 | – | 1204.2
x1 = 0.5287 | 1202 | 1197.8 | 1194.2 | 1190.2
x1 = 0.5755 | – | 1186 | – | 1178.5
x1 = 0.6258 | – | 1172.1 | 1168.5 | 1164.5
x1 = 0.6802 | – | 1155.5 | 1152 | –
x1 = 0.7231 | 1144.7 | 1141.1 | – | 1133.8
x1 = 0.7785 | 1124.2 | 1120.8 | 1117.6 | 1113.7
x1 = 0.8257 | 1105.1 | 1102 | 1098.8 | 1094.8
x1 = 0.8697 | – | – | 1079.6 | –

Cc1ccccc1N + CC[n+]1ccn(C)c1.F[B-](F)(F)F
mass density [kg/m3]
Details | 293.15 K | 298.15 K | 303.15 K | 308.15 K
x1 = 0.0684 | 1273.7 | 1270.4 | 1268 | 1264.4
x1 = 0.0786 | – | 1268.9 | – | 1263.1
x1 = 0.1243 | – | 1262 | 1260 | 1256.7
x1 = 0.1783 | – | 1253.2 | 1251.2 | 1247.9
x1 = 0.2255 | 1248 | 1244.9 | 1242.8 | –
x1 = 0.2781 | 1238.4 | 1235.1 | – | 1229.2
x1 = 0.3234 | 1229.6 | – | 1223.3 | 1219.8
x1 = 0.3712 | – | – | 1212.8 | 1209.1
x1 = 0.4096 | 1211 | – | 1203.8 | 1200.1
x1 = 0.4763 | 1195 | 1191.1 | – | 1183.5
x1 = 0.5242 | 1182.5 | 1178.5 | 1174.6 | 1170.8
x1 = 0.5781 | 1167.2 | 1163.4 | 1159.3 | 1155.6
x1 = 0.6254 | 1152.9 | – | 1145.1 | –
x1 = 0.6771 | 1135.9 | 1132.3 | 1128.5 | 1124.9
x1 = 0.7226 | 1119.9 | 1116.5 | 1112.8 | 1109.3
x1 = 0.7683 | 1102.8 | 1099.6 | 1096 | 1092.7
x1 = 0.8276 | 1078.9 | 1075.8 | 1072.5 | 1069.3
x1 = 0.8687 | 1061.3 | 1058.2 | 1054.9 | 1051.6

CNc1ccccc1 + CC[n+]1ccn(C)c1.F[B-](F)(F)F
mass density [kg/m3]
Details | 293.15 K | 298.15 K | 303.15 K | 308.15 K
x1 = 0.0712 | – | 1268.6 | 1265 | 1261
x1 = 0.0944 | – | 1264.8 | 1261.2 | –
x1 = 0.1175 | – | 1260.8 | 1257.2 | 1253.2
x1 = 0.1685 | 1255.8 | 1251.6 | 1248.1 | 1244.1
x1 = 0.2164 | – | – | 1239 | 1235
x1 = 0.2818 | 1233.3 | 1229.2 | – | 1221.6
x1 = 0.3365 | 1221.3 | – | 1213.6 | 1209.6
x1 = 0.3805 | 1211.1 | 1206.9 | 1203.3 | –
x1 = 0.4166 | 1202.2 | 1198.1 | 1194.4 | 1190.4
x1 = 0.4775 | 1186.3 | 1182.3 | 1178.6 | 1174.5
x1 = 0.5287 | 1172 | 1168 | 1164.2 | 1160.2
x1 = 0.5855 | 1154.9 | 1150.9 | 1147.2 | 1143.1
x1 = 0.6144 | 1145.7 | 1141.8 | 1138 | 1134
x1 = 0.6638 | 1129.3 | 1125.4 | 1121.5 | –
x1 = 0.7202 | 1109.2 | 1105.3 | 1101.5 | 1097.5
x1 = 0.7822 | 1085.5 | 1081.6 | 1077.6 | 1073.7
x1 = 0.8343 | 1064 | 1060.2 | 1056.2 | 1052.3
x1 = 0.8775 | 1045.2 | 1041.3 | 1037.4 | 1033.5
